Data on 50 compounds can be found in article PMC6919601, “Identification of Plasmodium dipeptidyl aminopeptidase allosteric inhibitors by high throughput screening” (PLoS ONE, 2019).

About 230 (0.21%) of roughly 110,000 compounds showed an effect of 50% or more. This is one part of the list.
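Note: 30 min substrate incubation versus DMSO and 10 µM JCP410 controls.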

The target of this test is DPAP1 (Plasmodium falciparum, UniProt Q8IIJ9). Kind of test: primary screen, percent inhibition; read by cleavage of a fluorogenic dipeptide substrate; higher = more effect of the substance. Also on record: species or system P. falciparum D10 trophozoite lysates; single well.
Chain of DPAP1 (Q8IIJ9 whole entry, looked up): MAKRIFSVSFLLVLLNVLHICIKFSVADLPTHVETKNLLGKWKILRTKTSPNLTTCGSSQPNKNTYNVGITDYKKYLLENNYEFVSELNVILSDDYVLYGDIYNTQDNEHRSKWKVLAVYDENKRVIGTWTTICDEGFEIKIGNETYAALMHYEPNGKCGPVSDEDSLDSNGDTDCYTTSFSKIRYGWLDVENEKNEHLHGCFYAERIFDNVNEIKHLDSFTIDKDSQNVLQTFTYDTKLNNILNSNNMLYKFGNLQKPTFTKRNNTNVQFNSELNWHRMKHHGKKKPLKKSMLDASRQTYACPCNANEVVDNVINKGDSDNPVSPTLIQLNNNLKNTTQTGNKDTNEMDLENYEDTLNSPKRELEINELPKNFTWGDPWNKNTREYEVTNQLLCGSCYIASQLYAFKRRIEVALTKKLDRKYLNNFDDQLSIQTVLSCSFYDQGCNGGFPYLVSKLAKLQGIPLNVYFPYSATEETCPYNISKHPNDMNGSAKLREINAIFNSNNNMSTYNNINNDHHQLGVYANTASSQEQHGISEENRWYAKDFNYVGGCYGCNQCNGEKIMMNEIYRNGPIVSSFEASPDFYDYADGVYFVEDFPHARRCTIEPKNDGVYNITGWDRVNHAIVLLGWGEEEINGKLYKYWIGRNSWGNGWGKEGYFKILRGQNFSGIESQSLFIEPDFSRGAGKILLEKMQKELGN
As to `CCCNC(=O)[C@@H](c1ccccc1)N1Cc2ccccc2C1=O`, the “% Inhibition @ 10 uM” value is given as 1.26%.
The figure for `O=C1CCCc2occ(-c3ccc([N+](=O)[O-])cc3)c21` is 0.98%; for `Cc1ccc(NC(=O)c2ccc(N3C(=O)C4C5C=CC(C5)C4C3=O)cc2)cc1C` (centres unmarked) it is 2.63%; for `CC(C)C[C@H](NC(=O)OCc1ccccc1Br)C(=O)NCC#N` it is -10.1%.
The figure for `Cc1ccc(-c2cc(-c3cccs3)nc(Br)c2C#N)c(C)c1` is 4.22%; for `CC1CCCC(C)N1C(=O)c1cc2ccccc2oc1=O` (centres unmarked) it is -5.11%; for `CCN1C(=O)S/C(=C/c2ccc(-c3ccccc3C#N)o2)C1=O` it is 4.44%.
As to `COC(=O)c1cnn2c1NCN(CCc1ccc(OC)c(OC)c1)C2`, the “% Inhibition @ 10 uM” value was 0.66%.
With `Cc1ccccc1CNC(=O)Cn1nc(C)c2c(C)n(-c3ccccc3)nc2c1=O` the figure was -2.49%.
The figure for `CC(C)NS(=O)(=O)c1cccnc1N1CCN(C)CC1` is 4.83%; for `CCOc1cc(C(=O)N2CCN(C/C=C/c3ccccc3)CC2)cc(OCC)c1OCC` it is 2.32%; for `COc1ccc(C2C(C(=O)c3ccc(Cl)cc3)=C(O)C(=O)N2c2cccnc2)c(OC)c1` (centres unmarked) it is 0.727%.
With `O=C(Nc1cccc([N+](=O)[O-])c1)C12CC3CC(CC(C3)C1)C2` the figure was 3.12%; with `Cc1nc(N2C(=O)c3oc4ccccc4c(=O)c3C2c2ccc(O)cc2)sc1C` (centres unmarked), -6.23%; with `COc1ccc(CN2CCc3ccccc3C2)cc1C`, -0.127%.
As for `CC1=C(C(=O)NCCCN(Cc2ccccc2)C(C)C)C2(CCCCCC2)OC1=O`, the “% Inhibition @ 10 uM” value is given as -3.22%.
Consider `Cc1cccc(OCCCCCCc2c(C)n[nH]c2C)c1`, for which the “% Inhibition @ 10 uM” value turned out to be 5.01%.
On to `CCOC(=O)N1CCC(NC(=O)C2CCN(S(C)(=O)=O)CC2)CC1`, for which the “% Inhibition @ 10 uM” value was -4.97%.
The figure for `CC1CCN(c2nc(Cl)nc(N3CCC(C)CC3)n2)CC1` is 0.343%; for `CCCCC(=O)Nc1cc(OC)ccc1OC` it is -3.9%; for `CC(=O)c1c(C)nn(-c2nc3ccccc3s2)c1O` it is 3.16%.
The figure for `Cc1nc2c(c(C)c1CCC(=O)N1CCC(C)CC1)c(=O)n(C)c(=O)n2C` is -3.1%; for `CN(C1CCCCC1)S(=O)(=O)N1CCCC(C(=O)NCc2ccc(Cl)cc2)C1` (centres unmarked) it is 2.27%.
With `Cc1cc(C)cc(OCCc2c(C)nc(N)nc2O)c1` the figure was 0.9%.
As to `Cc1ccc(C)c(CN2CCN(CCO)CC2)c1`, the “% Inhibition @ 10 uM” value is -0.856%.
The figure for `CCC(C)NC(=O)CS(=O)Cc1nc(-c2cccc(OC)c2)oc1C` (centres unmarked) is 0.689%; for `CCCOc1ccc(C2C(C(=O)OC)=CN(C(C)C)C=C2C(=O)OC)cc1OC` it is 1.66%.
Take `CN1C(C(=O)N2CCN(C(=O)C(C)(C)C)CC2)=CC(c2ccco2)=NS1(=O)=O`: the “% Inhibition @ 10 uM” value is listed as 0.655%.
The figure for `COc1ccccc1CNC(=O)NCc1noc2ccccc12` is 4.58%; for `O=C(O)/C=C\C(=O)Nc1ccccc1Cl` it is -5.5%; for `Cc1cc(NS(=O)(=O)c2ccc(NC(=O)c3ccc4c(c3)OCO4)cc2)nc(C)n1` it is 0.163%.
On to `O=C(CCCN1C(=O)c2cccc3cccc(c23)C1=O)N1CCN(C/C=C/c2ccccc2)CC1`, for which the “% Inhibition @ 10 uM” value is -2.13%.
The figure for `O=c1oc2c3c(ccc2c2ccccc12)OCN(CCc1ccccc1)C3` is -0.808%; for `O=C(NC1CCCC1)c1ccc(Cl)c([N+](=O)[O-])c1` it is -4.91%; for `O=C(NCCCn1ccnc1)c1cc(-c2ccccc2)nc2ccccc12` it is -0.116%.
With `COc1cccc(C(=O)Nc2nc(-c3ccc(S(=O)(=O)N4CCCC4)cc3)cs2)c1` the figure was 7.48%; with `CN1CCC(N(C)C2CCC(c3ccccc3)CC2)CC1` (centres unmarked), -0.0908%.
Take `CN(C)c1ccccc1NC(=O)c1scc2c1CCCC2`: the “% Inhibition @ 10 uM” value was -3.09%.
The figure for `Cc1cc(NCCc2ccc(Cl)cc2)n2ncnc2n1` is -2.8%; for `CC(=O)c1ccc(OCC(O)CN2CCC(Cc3ccccc3)CC2)cc1` (centres unmarked) it is 1.87%; for `Cc1cccc(C)c1OCC(=O)N(Cc1cccs1)C1CCS(=O)(=O)C1` (centres unmarked) it is -1.33%.
Regarding `CC(=O)Nc1ccc(NC2(C)C(=O)c3ccccc3C2=O)cc1`, the “% Inhibition @ 10 uM” value is recorded as -0.424%.
With `CCc1ccc(-c2cn3c(n2)sc2cc(Cl)ccc23)cc1` the figure was -3.77%; with `CN(Cc1ccccc1)C(=O)c1nn(C)c2c1CSc1ccccc1-2`, 4.86%.
For `Cc1nn(Cc2cccc3ccccc23)c(C)c1NC(=O)COc1ccc(F)cc1`, the “% Inhibition @ 10 uM” value is listed as -3.34%.
With `Cc1cc(-c2nc3cc(N)ccc3o2)ccc1Br` the figure was 6.4%; with `Cc1ccc(C(=O)Nc2ccc(Cc3ccc(NC(=O)c4ccc(C)o4)cc3)cc2)o1`, 0.727%.
Turning to `O=C(Cn1nnc(-c2cccc(C(F)(F)F)c2)n1)NC1CCCC1`, the “% Inhibition @ 10 uM” value was 2.99%.
With `Cn1nnnc1SCCNCc1ccsc1` the figure was 0.00706%; with `CN(C1CCCCC1)S(=O)(=O)N1CCCC(C(=O)NCc2ccccc2)C1` (centres unmarked), -0.232%.
